Reference: ChEMBL document CHEMBL5303300, “EUbOPEN Chemogenomics Library - Multiplex” (2023)
The source holds more than one record for some entries. The other results are left out here. There may be further records. Results that share an entry are repeats in other runs, samples, wells, individuals or studies.

How the values were obtained:
Type in all cases: toxicity, cell-based
[1] = system: Fibroblast; experiment: Multiplex assay against human fibroblast; details: 10 µM, compound concentration 10 uM, number of replicates 2
How it was run: (§1)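 Hoechst33342, BioTracker Green Microtubule Cytoskeleton Dye, MitoTracker Red and Annexin V Alexa Fluor 680 were added to live cells at seeding, and imaging on a CQ1 microscope at 37°C and 5% CO2 followed compound addition. Gating by CellPathfinder machine learning separated cells into Hoechst high-intensity objects or normal cells, then normal cells into healthy, pyknosed or fragmented nuclei, then pyknosed cells into mitotic or apoptotic. Per cents of healthy-nucleus cells are reported for the tubulin, mitochondrial-mass and membrane-permeability phenotypes.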

[2] = system: HEK-293T; experiment: Multiplex assay against HEK293T; details: human, 48 h, number of replicates 2; how it was run: as §1
[3] = system: U2OS; experiment: Multiplex assay against U2OS; details: human, number of replicates 2; how it was run: as §1
[4] = 1 µM, compound concentration 1 uM
[5] = 12 h, 1 µM, compound concentration 1 uM
[6] = 12 h, 10 µM, compound concentration 10 uM
[7] = 24 h, 1 µM, compound concentration 1 uM
[8] = 24 h, 10 µM, compound concentration 10 uM
[9] = 48 h, 1 µM, compound concentration 1 uM
[10] = 48 h, 10 µM, compound concentration 10 uM

SMILES: CCCCOc1c(C(=O)c2c(F)cc(C)cc2F)c[nH]c2nncc1-2
- Population Membrane Permeable-Phenotype (%) ([1]; 48 h): 18% and 3%
- Population Apoptotic (%) [2, 4]: 11% and 34%
- Population Fragmented Nuclei (%) [3, 5]: 27% and 3%
- Total Cell Count [3, 5]: 55 and 207
- Population Mitotic Cells (%) [3, 6]: 57% and 16%
- Population Pyknosed Nuclei (%) [3, 6]: 51% and 12%
- Population Pyknosed Nuclei (%) [3, 7]: 37% and 12%
- Total Cell Count [3, 7]: 40 and 261
- Population Fragmented Nuclei (%) [3, 8]: 22% and 6%
- Population Healthy Nuclei (%) [3, 8]: 26% and 81%
- Population Pyknosed Nuclei (%) [3, 8]: 51% and 11%
- Population Pyknosed Nuclei (%) [3, 9]: 23% and 6%
- Total Cell Count [3, 9]: 69 and 434
- Population Fragmented Nuclei (%) [3, 10]: 25% and 7%
- Population Healthy Nuclei (%) [3, 10]: 14% and 76%
- Population Pyknosed Nuclei (%) [3, 10]: 60% and 15%

SMILES: O=C(NCc1ccc(F)cc1)N1CCN2C(=O)OC(c3ccccc3)(c3ccccc3)C2C1 (configuration not stated)
- Population Mitotic Cells (%) ([1]; 48 h): 54% and 16%
- Population Apoptotic (%) [2, 4]: 8% and 32%
- Total Cell Count [3, 5]: 27 and 302
- Total Cell Count [3, 6]: 38 and 256
- Population Pyknosed Nuclei (%) [3, 7]: 8% and 32%
- Total Cell Count [3, 7]: 425 and 35
- Total Cell Count [3, 8]: 37 and 324
- Population Fragmented Nuclei (%) [3, 9]: 2% and 18%
- Population Mitotic Cells (%) [3, 9]: 62% and 10%
- Total Cell Count [3, 9]: 786 and 54
- Total Cell Count [3, 10]: 56 and 465

SMILES: CCCN(CCc1cccs1)[C@H]1CCc2c(O)cccc2C1 [ROTIGOTINE]
- Population Apoptotic (%) ([1]; 12 h): 50% and 13%
- Population Apoptotic (%) ([1]; 24 h): 83% and 20%
- Population Mitotic Cells (%) ([1]; 24 h): 16% and 80%
- Population Apoptotic (%) ([2]; 10 µM, compound concentration 10 uM): 16% and 4%
- Population Membrane Permeable-Phenotype (%) [3, 5]: 1% and 13%
- Population Fragmented Nuclei (%) [3, 6]: 3% and 23%
- Population Tubulin-Different-Phenotype (%) [3, 6]: 57% and 17%
- Population Fragmented Nuclei (%) [3, 8]: 3% and 14%
- Population Fragmented Nuclei (%) [3, 9]: 2% and 14%
- Population Mitotic Cells (%) [3, 9]: 64% and 16%
